Reference: article PMC5908291, “The JmjN domain as a dimerization interface and a targeted inhibitor of KDM4 demethylase activity” (Oncotarget, 2018)
Results are given in words; binding and its absence hold for the method and conditions named. Binding seen in cells or lysates may run through a third protein. Some results given as binding are weak or reduced against the parent protein; the word gives no strength. Sequences can lack the tags named with a protein. Values belong to the binder of their own block, whether it stands above or below them.

Key:
[1] = target: isolated JmjN domain of KDM4C p.E24A/E25A with a C-terminal YN or YC tag (human) (UniProt Q9H3R0); experiment: split reporter; BiFC (Venus YN + YC), live cell confocal imaging of HEK293 cells 20 h after co-transfection, 37°C, 5% CO2
[2] = target: isolated JmjN domain of KDM4C p.H42A/R43A with a C-terminal YN or YC tag (human) (UniProt Q9H3R0); experiment: as above
[3] = target: KDM4C double mutant p.E24A/E25A + p.H42A/R43A with a C-terminal YN or YC tag (human) (UniProt Q9H3R0); experiment: split reporter; BiFC (Venus YN + YC), immunofluorescence microscopy of fixed, permeabilised HEK293 cells 20 h after co-transfection; transfected cells marked by anti-YFP, anti-KDM4C or anti-HA
[4] = target: KDM4C lacking the JmjN domain, with a C-terminal YN or YC tag (human) (UniProt Q9H3R0); experiment: split reporter; BiFC (Venus YN + YC), live cell confocal imaging of HEK293 cells 20 h after co-transfection, 37°C, 5% CO2
[5] = target: KDM4C lacking the JmjN domain, with a C-terminal YN or YC tag (human) (UniProt Q9H3R0); experiment: split reporter; BiFC (Venus YN + YC), immunofluorescence microscopy of fixed, permeabilised HEK293 cells 20 h after co-transfection; transfected cells marked by anti-YFP, anti-KDM4C or anti-HA

- binding [1]: binds
B1: isolated JmjN domain of KDM4C p.E24A/E25A with a C-terminal YN or YC tag (domain or fragment, UniProt Q9H3R0 1-58)
chain: MEVAEVESPLNPSCKIMTFRPSMAAFREFNKYLAYMESKGAHRAGLAKVIPPKEWKPR

- binding [2]: binds
B2: isolated JmjN domain of KDM4C p.H42A/R43A with a C-terminal YN or YC tag (domain or fragment, UniProt Q9H3R0 1-58)
chain: MEVAEVESPLNPSCKIMTFRPSMEEFREFNKYLAYMESKGAAAAGLAKVIPPKEWKPR

- binding [3]: no binding
B3: KDM4C double mutant p.E24A/E25A + p.H42A/R43A with a C-terminal YN or YC tag (enzyme, UniProt Q9H3R0 1-1056)
chain: MEVAEVESPLNPSCKIMTFRPSMAAFREFNKYLAYMESKGAAAAGLAKVIPPKEWKPRQCYDDIDNLLIPAPIQQMVTGQSGLFTQYNIQKKAMTVKEFRQLANSGKYCTPRYLDYEDLERKYWKNLTFVAPIYGADINGSIYDEGVDEWNIARLNTVLDVVEEECGISIEGVNTPYLYFGMWKTTFAWHTEDMDLYSINYLHFGEPKSWYAIPPEHGKRLERLAQGFFPSSSQGCDAFLRHKMTLISPSVLKKYGIPFDKITQEAGEFMITFPYGYHAGFNHGFNCAESTNFATVRWIDYGKVAKLCTCRKDMVKISMDIFVRKFQPDRYQLWKQGKDIYTIDHTKPTPASTPEVKAWLQRRRKVRKASRSFQCARSTSKRPKADEEEEVSDEVDGAEVPNPDSVTDDLKVSEKSEAAVKLRNTEASSEEESSASRMQVEQNLSDHIKLSGNSCLSTSVTEDIKTEDDKAYAYRSVPSISSEADDSIPLSSGYEKPEKSDPSELSWPKSPESCSSVAESNGVLTEGEESDVESHGNGLEPGEIPAVPSGERNSFKVPSIAEGENKTSKSWRHPLSRPPARSPMTLVKQQAPSDEELPEVLSIEEEVEETESWAKPLIHLWQTKSPNFAAEQEYNATVARMKPHCAICTLLMPYHKPDSSNEENDARWETKLDEVVTSEGKTKPLIPEMCFIYSEENIEYSPPNAFLEEDGTSLLISCAKCCVRVHASCYGIPSHEICDGWLCARCKRNAWTAECCLCNLRGGALKQTKNNKWAHVMCAVAVPEVRFTNVPERTQIDVGRIPLQRLKLKCIFCRHRVKRVSGACIQCSYGRCPASFHVTCAHAAGVLMEPDDWPYVVNITCFRHKVNPNVKSKACEKVISVGQTVITKHRNTRYYSCRVMAVTSQTFYEVMFDDGSFSRDTFPEDIVSRDCLKLGPPAEGEVVQVKWPDGKLYGAKYFGSNIAHMYQVEFEDGSQIAMKREDIYTLDEELPKRVKARFSTASDMRFEDTFYGADIIQGERKRQRVLSSRFKNEYVADPVYRTFLKSSFQKKCQKRQ

- binding [4]: no binding
- binding [5]: no binding
B4: KDM4C lacking the JmjN domain, with a C-terminal YN or YC tag (enzyme, UniProt Q9H3R0)
chain: MEVAEVESPLNPSCKQCYDDIDNLLIPAPIQQMVTGQSGLFTQYNIQKKAMTVKEFRQLANSGKYCTPRYLDYEDLERKYWKNLTFVAPIYGADINGSIYDEGVDEWNIARLNTVLDVVEEECGISIEGVNTPYLYFGMWKTTFAWHTEDMDLYSINYLHFGEPKSWYAIPPEHGKRLERLAQGFFPSSSQGCDAFLRHKMTLISPSVLKKYGIPFDKITQEAGEFMITFPYGYHAGFNHGFNCAESTNFATVRWIDYGKVAKLCTCRKDMVKISMDIFVRKFQPDRYQLWKQGKDIYTIDHTKPTPASTPEVKAWLQRRRKVRKASRSFQCARSTSKRPKADEEEEVSDEVDGAEVPNPDSVTDDLKVSEKSEAAVKLRNTEASSEEESSASRMQVEQNLSDHIKLSGNSCLSTSVTEDIKTEDDKAYAYRSVPSISSEADDSIPLSSGYEKPEKSDPSELSWPKSPESCSSVAESNGVLTEGEESDVESHGNGLEPGEIPAVPSGERNSFKVPSIAEGENKTSKSWRHPLSRPPARSPMTLVKQQAPSDEELPEVLSIEEEVEETESWAKPLIHLWQTKSPNFAAEQEYNATVARMKPHCAICTLLMPYHKPDSSNEENDARWETKLDEVVTSEGKTKPLIPEMCFIYSEENIEYSPPNAFLEEDGTSLLISCAKCCVRVHASCYGIPSHEICDGWLCARCKRNAWTAECCLCNLRGGALKQTKNNKWAHVMCAVAVPEVRFTNVPERTQIDVGRIPLQRLKLKCIFCRHRVKRVSGACIQCSYGRCPASFHVTCAHAAGVLMEPDDWPYVVNITCFRHKVNPNVKSKACEKVISVGQTVITKHRNTRYYSCRVMAVTSQTFYEVMFDDGSFSRDTFPEDIVSRDCLKLGPPAEGEVVQVKWPDGKLYGAKYFGSNIAHMYQVEFEDGSQIAMKREDIYTLDEELPKRVKARFSTASDMRFEDTFYGADIIQGERKRQRVLSSRFKNEYVADPVYRTFLKSSFQKKCQKRQ
